Data published in PubChem BioAssay AID1346428 (National Center for Advancing Translational Sciences (NCATS), 2018).
Where “and” joins values, the source holds several entries; their conditions need not be identical. Identical values can stand only once. Screen size: about 48,000 compounds; about 1,200 (2.5%) were called active. About 2% were inconclusive and are not listed.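 How the source made its calls: active means activation of at least 60% and not above a set upper limit (about 1 call in 100 departs from these limits); inconclusive means activation of 40% to 60%, or above that upper limit; inactive means activation under 40%.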 The list shows a part of the results.

Each compound was assayed against Probable G-protein coupled receptor 32 (Homo sapiens) (UniProt O75388) (assay: qHTS for Agonists of Human Resolvin D1 Receptor DRV1). Conditions: CHO-K1 GPR32 beta-arrestin PathHunter luminescence, 90 min; at 76.9 µM; stronger effect = higher value; zero percent set by DMSO-only wells.
Procedure, shortened: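 GPR32 activation in stably transfected CHO-K1 cells, detected as beta-arrestin recruitment by enzyme-fragment complementation. Compound exposure: 90 min, 37 °C.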
Further: 0% is about no effect.

Sequence of UniProt O75388 (O75388 whole entry, looked up, the tested form may be a part): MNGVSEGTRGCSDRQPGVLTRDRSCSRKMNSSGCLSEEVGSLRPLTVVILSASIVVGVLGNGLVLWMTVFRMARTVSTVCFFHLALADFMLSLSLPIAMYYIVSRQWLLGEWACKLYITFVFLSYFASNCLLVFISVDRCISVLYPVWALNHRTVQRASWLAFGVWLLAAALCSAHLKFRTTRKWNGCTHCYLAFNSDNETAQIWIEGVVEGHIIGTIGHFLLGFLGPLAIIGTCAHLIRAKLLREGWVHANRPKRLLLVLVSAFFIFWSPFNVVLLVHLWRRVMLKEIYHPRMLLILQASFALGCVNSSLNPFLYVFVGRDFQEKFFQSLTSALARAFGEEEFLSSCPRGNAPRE

activation, inactive:
O=C(Cn1ncc2c([nH]c3ccccc32)c1=O)Nc1cccc(C(F)(F)F)c1 -1.57%
CC(=O)N1CCc2cc(S(=O)(=O)NC(Cc3ccccc3)C(=O)Nc3cccc(C)c3)ccc21 (configuration not stated) -6.89%
Cc1cc(C)cc(N2CC(c3nc(-c4cccc(Cl)c4)no3)CC2=O)c1 (configuration not stated) -19.1%
Cc1ccc(CNCc2ccccc2)s1 -3.76%
CCc1ccc(-n2c(=O)c3c4c(sc3n(Cc3ccc(C)cc3)c2=O)CCC4)cc1 -11.4%
O=C1C(Nc2ccccc2)=CC(c2ccc(Br)cc2)N1c1ccccc1 (configuration not stated) -24.3%
Cc1ccccc1CN1c2ccccc2S(=O)(=O)c2ccccc21 11.4%
COc1ccc(N2CCN(C(CNC(=O)C(=O)NCCc3ccccc3)c3cccnc3)CC2)cc1 (configuration not stated) -3.7%
O=C(NCc1ccccc1)c1ccc2nc(CCc3ccccc3)oc2c1 18.7%
Cc1ccc(CCNC(=O)NCc2noc3ccccc23)cc1 -13.2%
Cc1ccc(CN2CCC(CNC(=O)Nc3cccc(Cl)c3C)C2)cc1 (configuration not stated) 0%
COc1ccc(C)cc1NC(=O)NCc1cccn1Cc1ccccc1 -16%
COc1ccccc1NC(=O)CN(C)S(=O)(=O)c1ccc2c(c1)c(=O)n(C)c(=O)n2C -0.627%
CCOCCCN(C(=O)Nc1ccc(Cl)cc1)C1CCN(C(C)=O)CC1 -9.89%
Cc1c(CNC2CCCCCC2)c(C(=O)O)c(C)n1Cc1ccc(F)cc1Cl -7.64%
O=C(COc1ccc(Cl)cc1)Nc1nnc2n1CCS2 14%
COc1ccc(C)cc1NC(=O)CSc1nc2ccccc2nc1N1CCOCC1 -26.7%
CC1CCCN(S(=O)(=O)c2ccc3[nH]c(=O)cc(C(=O)NCCc4ccc(Cl)cc4)c3c2)C1 (configuration not stated) -15.6%
COc1cc(OC)cc(-c2nc(-c3cccc(C)c3)no2)c1 8.19%
Cc1ccc(-n2c3c(c(=O)[nH]c2=O)C(NC(=O)c2ccccc2C)(C(F)(F)F)C(=O)N3)cc1 (configuration not stated) 1.86%
Cc1cc2ccccc2n1-c1ccc(C(=O)N2CCC(C(=O)NCc3ccccc3Cl)CC2)s1 -13.4%
COc1ccccc1N1CCN(C(=O)CSc2n[nH]c(-c3ccccc3)n2)CC1 -2.28%
COc1cccc(/C=C/c2onc(C)c2S(=O)(=O)N2CCC(C(=O)N3CCC(C)CC3)CC2)c1 -15.9%
CC(CNC(=O)Cc1ccc(NC(=O)N2CCSc3ncccc32)cc1)c1ccccc1 (configuration not stated) 4.32%
CCOC(=O)C1=C(CN2CCN(c3ccccc3F)CC2)NC(=O)NC1c1ccc(Cl)cc1 (configuration not stated) -37%
Cc1ccccc1NCc1cccn1-c1nnc(N2CCC(C)CC2)s1 -8.09%
COc1ccc(-c2cn3c(n2)sc2cc(C(=O)Nc4cccc(OC)c4)ccc23)cc1 -17.7%
COC(=O)c1scc(-c2ccc(C)cc2)c1S(=O)(=O)Nc1ccc(N(C)C)cc1 -11.9%
Cc1nc2c(-c3ccccc3)c(C)nn2c(C)c1CCC(=O)NCc1ccc(F)cc1 -0.413%
Cc1c(Cl)cccc1-n1nc(C)c2c(C(=O)NCc3ccccc3)cc(C3CC3)nc21 -14.1%
Cc1ccc(CNC(=O)C2CCN(S(=O)(=O)c3cc(-c4noc(C)n4)ccc3C)CC2)cc1 0.172%
CCOc1ccc(NC(=O)CC2C(=O)N(c3ccccc3)C(=O)N2Cc2ccc3c(c2)OCO3)cc1 (configuration not stated) -12.6%
Cn1c(=O)oc2cc(S(=O)(=O)Nc3ccccc3O)ccc21 2.99%
COc1ccc(-c2cc(C(F)(F)F)nc(SCC(=O)N3CCC(C)CC3)n2)cc1 -15.2%
O=C(NCc1ccc(Cl)cc1)C1CCN(S(=O)(=O)Cc2ccccc2)CC1 -5.97%
CCOc1ccc(CCNC(=O)c2cc3c(s2)-c2ccccc2OC3)cc1OCC -1.59%
Cc1ccc(-c2cc(NC(=O)COc3ccc(Cl)cc3C)on2)cc1 4.73%
COc1ccc(OC)c(-c2csc(-c3c(N)c(C(=O)c4ccccc4)n4ccccc34)n2)c1 15.7%
CC(C)NCC(O)COc1ccc(COCCOC(C)C)cc1 (configuration not stated) 10.6% and -2.98%
COc1ccc(CN(Cc2ccco2)c2cnc(S(C)(=O)=O)nc2C(=O)Nc2ccc(F)cc2)cc1 -9.94%
COc1ccc(S(=O)(=O)N(CC(=O)Nc2cccc(C(F)(F)F)c2)c2ccc(C)cc2)cc1 20%
CCCCOc1ccc(CNC(=O)C2COc3ccc(OC)cc3C2)cc1 (configuration not stated) -2.32%
Cn1c(=O)n(C/C=C/c2ccccc2)c(=O)c2c1nc1n2CCN1c1ccccc1 -2.56%
COc1ccc(-n2c(=O)c3c(c4cc(OC)ccc4n3C)n(Cc3cc(C)ccc3C)c2=O)cc1 8.72%
CCOc1ccc(C(=O)c2cn(CC(=O)Nc3ccc4c(c3)OCO4)c3ccc(OCC)cc3c2=O)cc1 7.14%
Cc1ccc(NC(=O)CN2C(=O)COc3ccc(S(=O)(=O)N4CCCCC4)cc32)cc1N(C)C -20.9%
O=C(Cn1ncn2nc(-c3cccs3)cc2c1=O)NCc1cccc(Br)c1 -7.66%
COC(=O)c1cccnc1-n1c(=O)c2cccnc2n(CC(=O)Nc2c(C)cc(C)cc2C)c1=O 11%
Nc1c(C(=O)c2ccc(F)cc2)sc(Nc2ccccc2F)c1S(=O)(=O)c1ccc(Br)cc1 -51.5%
Cc1cccc(CNC(=O)c2ccc(NC(=O)N3CC(C)Sc4ccccc43)cc2)c1 (configuration not stated) -18.5%
CC(C)CN(CCNC(=O)CN1C(=O)CSc2ccc(S(=O)(=O)N3CCOCC3)cc21)CC(C)C -12.1%
CCOc1ccc(S(=O)(=O)N(CC(=O)Nc2ccc3c(c2)OCO3)c2ccccc2)cc1 -1.66%
Cc1ccc(NC(=O)Cn2c(=O)n(-c3ccccc3)c(=O)c3ccc(C(=O)NCc4ccc5c(c4)OCO5)cc32)c(C)c1 1.45%
O=C(Nc1c(-c2ccc(F)cc2)nc2ccccn12)c1ccccc1F -12.6%
COc1ccccc1CNC(=O)c1ccc2c(c1)CCN2S(=O)(=O)c1ccccc1 -9.95%
O=C(/C=C\c1ccc2c(c1)OCO2)NC1CC(=O)N(c2cccc(F)c2)C1 (configuration not stated) -7.99%
CCOC(=O)c1cccc(NC(=O)c2ccc3nc(Cc4ccccc4)oc3c2)c1 -17%
CC(C)c1cc(-c2nc(-c3ccc(Br)cc3)no2)n[nH]1 6.14%
CCCN(Cc1cccs1)C(=O)Nc1ccc(Br)cc1F -5.66%
Cc1cc2c(n1-c1ccc(C(=O)NCCc3ccccc3)cc1)CCC(C)C2 (configuration not stated) -12.4%
CCCN1CCN(CCNC(=O)Nc2ccccc2OCC)CC1 1.75%
CCN1CCN(c2ncc3c(n2)CCN(Cc2ccc(OC)c(OC)c2)C3)CC1 -0.307%
COc1ccc2[nH]c(=O)c(CN(C(=O)c3cccc(Cl)c3)c3cccc(C)c3)cc2c1 -14.4%
COc1cccc(CNC(=O)CCCCCn2c(=O)[nH]c3cc(OC)c(OC)cc3c2=O)c1 -3.02%
CCN1C(=O)c2ccccc2S(=O)c2ccc(C(=O)N3CCN(c4ccccc4OC)CC3)cc21 (configuration not stated) -7.69%
COc1cc(C(CC(=O)Nc2cc(C)ccn2)N2Cc3ccccc3C2=O)cc(OC)c1OC (configuration not stated) 17.9%
CCOC(=O)c1c(C)[nH]c(C)c1S(=O)(=O)NCC(=O)NCc1ccccc1Cl -6.72%
CN(Cc1ccccc1)C(=O)c1cc(-c2cccc(Cl)c2)on1 0.282%
COc1ccccc1CNC(=O)CCCn1c(=O)c2ccccc2n(Cc2ccccc2C#N)c1=O 10.4%
Cc1cc2c(n1-c1ccc(C(=O)NCc3ccc(OC(C)C)cc3)cc1)CCCC2 -16.2%
COc1cc(-c2oc3ccc(C)cc3c(=O)c2O)cc(OC)c1OC 10.5%
COc1ccc2c(c1)c1c(c(=O)n(-c3cccc(C)c3)c(=O)n1CC(=O)NCC1CCCO1)n2C (configuration not stated) 16.7%
COc1ccccc1NC(=O)CSc1oc(-c2ccccc2)nc1S(=O)(=O)c1ccccc1 -32.4%
CC(C)=CCC/C(C)=C/CC/C(C)=C/C(=O)OCC(=O)[C@@]1(O)CC[C@H]2[C@@H]3CCC4=CC(=O)C=C[C@]4(C)[C@H]3[C@@H](O)C[C@@]21C 5.95%
Cc1cccc(Cc2c(C)nc3nc(SCc4ccccc4F)nn3c2C)c1 -2.51%
CCOc1ccccc1C(=O)Nc1ccc(S(=O)(=O)Nc2ncccn2)cc1 -7.08%
O=C(CN1C(=O)COc2ccc(S(=O)(=O)N3CCCCCC3)cc21)NCCc1ccccc1 -50.4%
Cc1ccc(NC(=O)N2CCN(C)c3ncccc32)cc1C -1.76%
CSc1nc(N)c2ncn([C@@H]3O[C@H](COP(=O)(O)OP(=O)(O)OP(=O)(O)O)[C@@H](O)[C@H]3O)c2n1 3.9%
COCCNC(=O)c1c(NC(=O)c2cc(=O)c3cc(Cl)ccc3o2)sc2c1CCCC2 8.77%
COC(=O)c1ccccc1NC(=O)N1CCC(n2c(C)nc3cccnc32)CC1 9.76%
COc1cc(OC)c(N(C)C(=O)Cn2ncc3c(=O)oc4ccccc4c32)cc1Cl -5.79%
